# About 75 (2%) of roughly 3,200 compounds showed an effect of 50% or more. This is one part of the list.
# Test system: T1, S. aureus MSSA476
# T1 construct: MSSA476
# Set-up: species or system S. aureus MSSA476 (TSB) or V. cholerae SAD30 (LB); 384-well bacterial growth screen at 25 uM, OD600 relative to DMSO control
# Conditions: relative growth, OD600, TSB; 25 µM; inhibitor
row,Structure (SMILES),% of control remaining [%]
1,"CC(Cl)C(=O)NC(=O)NC12CC3CC(CC(C3)C1)C2 (stereo not drawn) [6-D10, 1-(adamantan-1-yl)-3-(2-chloropropanoyl)urea]",94.9268
2,"O=C(CCl)N(CC1=CCSC1)c1ccccc1 [4-F11, 2-chloro-N-[(2,5-dihydrothiophen-3-yl)methyl]-N-phenylacetamide]",111.672
3,"Cc1ccoc1C=C(C#N)C(=O)NCCc1ccccc1 [9-N03, 2-cyano-3-(3-methylfuran-2-yl)-N-(2-phenylethyl)prop-2-enamide]",109.663
4,"C=CC(=O)NC1CN(C(C)=O)C1 [1-N22, N-(1-acetylazetidin-3-yl)prop-2-enamide]",127.297
5,"C=CC(=O)NCCc1nnc(C)s1 [3-G22, N-[2-(5-methyl-1,3,4-thiadiazol-2-yl)ethyl]prop-2-enamide]",111.45
6,"C=CC(=O)NCc1cn(C2CCC2)nn1 [3-D09, N-[(1-cyclobutyl-1H-1,2,3-triazol-4-yl)methyl]prop-2-enamide]",106.226
7,"C=CC(=O)Nc1ccc2c(c1)S(=O)(=O)CC2 [3-O15, N-(1,1-dioxo-2,3-dihydro-1lambda6-benzothiophen-6-yl)prop-2-enamide]",91.5977
8,"C=CC(=O)NCC(c1c(F)cccc1F)N1CC(C)OC(C)C1 (stereo not drawn) [1-I13, N-[2-(2,6-difluorophenyl)-2-(2,6-dimethylmorpholin-4-yl)ethyl]prop-2-enamide]",98.1099
9,"O=C(CCl)N1N=C(c2cccs2)CC1c1cccc(O)c1 (stereo not drawn) [6-L04, 2-chloro-1-[5-(3-hydroxyphenyl)-3-(thiophen-2-yl)-4,5-dihydro-1H-pyrazol-1-yl]ethan-1-one]",3.7561
10,"CC(Cl)C(=O)N(C)CC(=O)Nc1ccccc1C(F)(F)F (stereo not drawn) [4-N05, 2-chloro-N-methyl-N-({[2-(trifluoromethyl)phenyl]carbamoyl}methyl)propanamide]",100.619
11,"Cn1cc(CN(C(=O)CCl)c2ccc(F)cc2)cn1 [6-D08, 2-chloro-N-(4-fluorophenyl)-N-[(1-methyl-1H-pyrazol-4-yl)methyl]acetamide]",94.2439
12,"O=C(CCl)N1CCOc2c1cccc2C(F)(F)F [5-G08, 2-chloro-1-[8-(trifluoromethyl)-3,4-dihydro-2H-1,4-benzoxazin-4-yl]ethan-1-one]",0.3643
13,"CCN(CC)S(=O)(=O)c1ccc(NC(=O)CCl)cc1 [4-K07, 2-chloro-N-[4-(diethylsulfamoyl)phenyl]acetamide]",110.91
14,"C=CC(=O)N1CCC(C(=O)NCc2ccoc2C)CC1 [1-E14, N-[(2-methylfuran-3-yl)methyl]-1-(prop-2-enoyl)piperidine-4-carboxamide]",98.4615
15,"O=C(CCl)N1N=C(c2ccsc2)CC1c1cccc(F)c1 (stereo not drawn) [4-C22, 2-chloro-1-[5-(3-fluorophenyl)-3-(thiophen-3-yl)-4,5-dihydro-1H-pyrazol-1-yl]ethan-1-one]",168.08
16,"O=C(CCl)NCc1cc(O)ccc1Cl [7-J21, 2-chloro-N-[(2-chloro-5-hydroxyphenyl)methyl]acetamide]",95.1334
17,"Cc1ccc(C)c(NC(=O)CN(C)C(=O)CCl)c1 [6-N04, 2-chloro-N-{[(2,5-dimethylphenyl)carbamoyl]methyl}-N-methylacetamide]",106.537
18,"COc1ccc(CNC(=O)C(C)Cl)cc1 (stereo not drawn) [5-J18, 2-chloro-N-[(4-methoxyphenyl)methyl]propanamide]",118.761
19,"C=CC(=O)NCCn1cc(Cl)c(C(F)(F)F)n1 [2-F03, N-{2-[4-chloro-3-(trifluoromethyl)-1H-pyrazol-1-yl]ethyl}prop-2-enamide]",110.357
20,"C=CCNC(=O)C(C#N)=CC=Cc1ccccc1 [9-J08, 2-cyano-5-phenyl-N-(prop-2-en-1-yl)penta-2,4-dienamide]",82.6966
21,"CCN(CC)S(=O)(=O)c1cccc(NC(=O)CCl)c1 [4-M07, 2-chloro-N-[3-(diethylsulfamoyl)phenyl]acetamide]",110.529
22,"C=CC(=O)N1CCC(n2cc(C(N)=O)nn2)C1 (stereo not drawn) [1-C18, 1-[1-(prop-2-enoyl)pyrrolidin-3-yl]-1H-1,2,3-triazole-4-carboxamide]",111.824
23,"COc1ccc(N(C)C(=O)C(C)Cl)cc1Cl (stereo not drawn) [7-C14, 2-chloro-N-(3-chloro-4-methoxyphenyl)-N-methylpropanamide]",104.553
24,"CC(Cl)C(=O)Nc1ccccc1C(N)=O (stereo not drawn) [5-G05, 2-(2-chloropropanamido)benzamide]",93.9891
25,"C=CC(=O)NCCC(=O)N1CCCC1c1cc(C)on1 (stereo not drawn) [2-C12, N-{3-[2-(5-methyl-1,2-oxazol-3-yl)pyrrolidin-1-yl]-3-oxopropyl}prop-2-enamide]",150.044
26,"C=CC(=O)N1CCC(n2ccc(C)n2)CC1 [2-A21, 1-[4-(3-methyl-1H-pyrazol-1-yl)piperidin-1-yl]prop-2-en-1-one]",154.917
27,"C=CC(=O)NCc1conc1C1CCC1 [1-N06, N-[(3-cyclobutyl-1,2-oxazol-4-yl)methyl]prop-2-enamide]",124.132
28,"Cc1ccc(-n2c(C)cc(C(=O)CCl)c2C)cc1C [10-B14, 2-chloro-1-[1-(3,4-dimethylphenyl)-2,5-dimethyl-1H-pyrrol-3-yl]ethan-1-one]",1.25
29,"C=CC(=O)NCc1ncccc1S(C)(=O)=O [2-D21, N-[(3-methanesulfonylpyridin-2-yl)methyl]prop-2-enamide]",107.92
30,"O=C(CCl)Nc1cc(C(=O)O)cc(C(=O)O)c1 [4-B04, 5-(2-chloroacetamido)benzene-1,3-dicarboxylic acid]",99.8571

# Reference: paper PMC11995724, “Antibiotic target discovery by integrated phenotypic and activity-based profiling of electrophilic fragments” (Cell chemical biology, 2025)
